Test results reported in PubChem BioAssay AID488969 (Vanderbilt High Throughput Screening Facility, 2010).
In all, about 110,000 compounds were measured (“z-score”: median about -0.1, highest 2% from about 2 on). This is one part of the list. Calls of active or inactive are those of the source.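 Rule for the calls: active = z-score in the third read window above 3 or below -3; inactive = the rest.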

Target: Metabotropic glutamate receptor 8 (Rattus norvegicus) (UniProt P70579)
Experiment: rat mGluR8 modulators via GIRK flux, primary screen, cell-based, thallium flux, HTS (AID 488969)
Details: HEK293 rat mGluR8, GIRK (G protein-gated inwardly rectifying potassium channel) thallium flux, FluoZin2; at 10 µM; stronger effect = higher value; submaximal glutamate (EC20) added with thallium

Chain of UniProt P70579 (P70579 whole entry, looked up): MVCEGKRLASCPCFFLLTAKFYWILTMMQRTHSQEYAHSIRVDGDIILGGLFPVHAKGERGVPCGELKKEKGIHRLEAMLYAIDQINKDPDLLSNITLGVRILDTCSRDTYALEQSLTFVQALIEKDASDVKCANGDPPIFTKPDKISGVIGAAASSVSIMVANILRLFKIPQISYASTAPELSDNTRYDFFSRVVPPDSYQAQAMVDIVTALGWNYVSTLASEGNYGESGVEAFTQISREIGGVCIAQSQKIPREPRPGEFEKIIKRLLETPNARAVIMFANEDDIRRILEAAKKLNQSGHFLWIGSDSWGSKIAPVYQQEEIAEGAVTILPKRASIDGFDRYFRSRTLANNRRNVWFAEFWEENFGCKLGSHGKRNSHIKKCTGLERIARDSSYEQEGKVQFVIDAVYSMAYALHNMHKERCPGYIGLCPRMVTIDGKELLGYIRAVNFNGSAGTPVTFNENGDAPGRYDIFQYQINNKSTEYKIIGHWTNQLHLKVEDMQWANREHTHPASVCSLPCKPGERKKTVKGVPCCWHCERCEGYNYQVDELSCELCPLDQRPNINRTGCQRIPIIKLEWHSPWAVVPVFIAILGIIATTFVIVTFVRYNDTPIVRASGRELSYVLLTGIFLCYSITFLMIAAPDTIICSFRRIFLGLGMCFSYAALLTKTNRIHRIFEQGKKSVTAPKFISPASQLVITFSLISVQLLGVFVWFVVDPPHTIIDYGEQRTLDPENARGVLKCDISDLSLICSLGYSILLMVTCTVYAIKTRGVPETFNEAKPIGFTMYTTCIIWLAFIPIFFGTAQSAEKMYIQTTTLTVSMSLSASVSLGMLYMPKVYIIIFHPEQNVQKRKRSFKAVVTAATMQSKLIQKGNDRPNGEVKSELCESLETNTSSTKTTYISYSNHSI

| SMILES | z-score |
| --- | --- |
| CCOC(=O)c1cc2sccc2n1CC(=O)N1CCCC1 | -0.278 |
| Cn1c(SCCN2CCCCC2)nnc1-c1ccccc1Br | 0.248 |
| CCCCN(C)C(=O)c1sc2ncn(CC)c(=O)c2c1C | 0.571 |
| c1ccc(-c2csc3ncn4nnnc4c23)cc1 | -0.177 |
| O=C1C2CC=CCC2C(=O)N1c1n[nH]c(-c2ccccc2)n1 (configuration not stated) | 1.11 |
| c1coc(-c2nnc3n2C2(CCCC2)Cc2ccccc2-3)c1 | -0.581 |
| COc1nc(N(CC(N)=O)S(=O)(=O)c2ccccc2)nc(C)c1Cl | 0.0517 |
| Cc1ccc(S(=O)(=O)CNC(=O)c2ccccc2)cc1 | 0.081 |
| Cc1ccc(N(CC(O)Cn2nc(C)cc2C)S(=O)(=O)c2ccc3ccccc3c2)cc1 (configuration not stated) | -0.205 |
| COC(=O)C(C)Sc1nnc(Cc2cc(=O)[nH]c(=O)[nH]2)n1-c1ccc(Cl)cc1 (configuration not stated) | -0.153 |
| CCOc1ccc(OCc2ccc(C(=O)Nc3cccc(C)n3)o2)cc1 | -0.284 |
| Cc1ccc(O)c(NC(=O)CCC2CCCCC2)c1 | -0.0619 |
| CC(C)c1ccc(/C=C/C(=O)NNC(=O)c2cccnc2)cc1 | -0.0443 |
| CCOC(=O)C1CCN(S(=O)(=O)c2c(C)n[nH]c2C)CC1 | -1.56 |
| Cc1cc(-c2ccc(F)cc2)nc2cc(C(N)=O)nn12 | 0.242 |
| CC(C)c1ccc(N(C(=O)C(F)(F)F)C(C(=O)NC2CCCCC2)c2ccncc2)cc1 (configuration not stated) | -0.106 |
| CN1CCCN(Cc2ccc(Cl)cc2Cl)CC1 | 0.524 |
| CC(=O)/C(=N\Nc1ccc(C)cc1)Sc1nncn1C | 0.125 |
| O=C(CCCn1c(=S)[nH]c2ccccc2c1=O)NCc1ccco1 | 0.0361 |
| O=C1CN(C(=O)CSc2nc(-c3ccc(Cl)cc3)cs2)c2ccccc2N1 | -0.0789 |
| CCCCn1c(N)c(C(=S)NC(=O)CC(C)C)c(=O)n(C)c1=O | active: 3.59 |
| CCCOc1ccc(C(=O)NNC(=S)NC(C)=O)cc1 | 0.435 |
| Cc1cc(C)c(Cn2c(=O)n(CCCC(=O)NCc3ccco3)c(=O)c3ccccc32)c(C)c1 | -0.0113 |
| O=C(NCCc1c[nH]c2ccccc12)C(F)(F)F | -0.0521 |

| SMILES | z-score |
| --- | --- |
| O=C(Nc1ccc2c(c1)OCCO2)C1CCCN(S(=O)(=O)c2cnc[nH]2)C1 (configuration not stated) | -0.0274 |
| Cc1noc(C)c1S(=O)(=O)N1CCC(C(=O)NCCc2ccc(S(N)(=O)=O)cc2)CC1 | 1.52 |
| CC(C)N(Cc1nc(-c2ccc(Cl)cc2)no1)C(=O)CN(C)S(=O)(=O)c1ccc(Cl)cc1 | -0.125 |
| CCCCCCCCCCCCCCCC[n+]1cccc2ccccc21 | 0.977 |
| CC(=O)c1c(C)c2c(n1CCN(C)C)CCCC2 | -1.8 |
| O=C(NCCCN1CCOCC1)c1cccnc1 | -0.0295 |
| CCOc1ccccc1NC(=O)/C(C#N)=C/c1c(C)nn(-c2ccc(F)cc2)c1Cl | -0.00825 |
| Cc1cccc(C)c1NC(=O)CS(=O)CC(=O)NC1CCN(Cc2ccccc2)CC1 (configuration not stated) | -0.159 |
| COC(=O)N(C)c1ccccc1C(=O)N1CCOCC1 | 0.084 |
| Cc1cc(CCCCCCCCc2cc(C)cc(=O)o2)oc(=O)c1 | -0.454 |
| O=S(=O)(/N=C(/Nc1ccc(F)c(F)c1F)c1ccccc1)c1ccccc1 | -0.125 |
| CCN1CCCC1CNC(=O)C(=O)Nc1ccc(OC)cc1 (configuration not stated) | 0.521 |
| CCCC1Cc2c(sc3ncnc(N)c23)CO1 (configuration not stated) | 1.57 |
| Clc1ccc(-c2noc(CCCc3ccccc3)n2)cc1 | -0.0738 |
| Cc1cc(NC(=O)CN2CCN(c3ccccc3O)CC2)no1 | 0.0808 |
| Cc1ccc(NC(=O)/C(=C\c2cccs2)NC(=O)c2ccccc2)cc1 | -0.33 |
| O=C(CCn1c(=O)oc2ccccc21)Nc1nc2ccccc2s1 | -0.202 |
| COc1cc(S(=O)(=O)N2CCCCC2)ccc1NC(=O)c1ccc(F)cc1 | -0.221 |
| O=C(COC(=O)C1(c2ccc(F)cc2)CCCC1)N1CCN(C(=O)c2ccco2)CC1 | 0.381 |
| COc1ccc(N2CCN(S(=O)(=O)c3ccc(Cl)c(C(F)(F)F)c3)CC2)cc1 | 0.388 |
| O=C(Cc1ccc(F)cc1)Oc1ccc(C(=S)N2CCCC2)cc1 | -0.715 |
| Cc1ccc(S(=O)(=O)NCC(=O)OCC(=O)c2c(N)n(C)c(=O)n(C)c2=O)cc1 | 1.7 |
| O=C1CCC(C(=O)Nc2ccc(OC(F)F)cc2)N1 (configuration not stated) | 0.952 |
| Cc1cc(=O)n2c(c1C#N)SC1CCCCC12O (configuration not stated) | -0.0971 |

| SMILES | z-score |
| --- | --- |
| Cc1nc(SCC(=O)Nc2c(C)n(C)n(-c3ccccc3)c2=O)[nH]c(=O)c1Cc1ccccc1 | -0.651 |
| C=CCN(Cc1cc(OC)ccc1OC)S(=O)(=O)N(C)C | -0.223 |
| CC(C)(C)NC(=O)CN(Cc1cccs1)C(=O)c1csnn1 | -0.338 |
| Cc1cc2cc(CN(CC3CCCO3)C(=S)Nc3ccccc3)c(=O)[nH]c2cc1C (configuration not stated) | -0.235 |
| CN(C)c1cc(C(F)(F)F)nc(-c2ccccn2)n1 | 0.0157 |
| C/C(=C\c1ccccc1)CN1CCC(C(=O)N2CCC(C)CC2)CC1 | 0.0588 |
| O=C(Nc1nc(-c2ccccc2)cs1)c1cccnc1 | -0.0109 |
| Cc1ccc(S(=O)(=O)Nc2c(C)n(C)n(-c3ccccc3)c2=O)cc1C(=O)NCc1ccccn1 | -0.336 |
| COc1cc2c(=O)n(Cc3ccco3)c(=O)n(CC(=O)c3cccc(Br)c3)c2cc1OC | 0.654 |
| O=c1[nH]c2cc3c(cc2cc1C(c1nnnn1C1CCCC1)N1CCSCC1)OCCO3 (configuration not stated) | -0.0721 |
| CC(C)(C)c1ccc(C(=O)NC(=S)Nc2ccc(N3CCOCC3)cc2)cc1 | -0.0299 |
| O=C(Cn1cccc1C(=O)c1ccccc1)NCc1ccco1 | 0.237 |
| CCOC(=O)Cc1csc(SCC(=O)NC2CCCCC2)n1 | 0.0608 |
| O=C(/C=N\O)NCCCNCc1ccccc1 | -0.171 |
| CC(SC1CCCC1)C(=O)Nc1ccnn1C(C)C (configuration not stated) | -0.159 |
| CCOc1ccc(-c2nnc(N(CC)C(=O)C3CCC3)s2)cc1 | 0.0114 |
| CC1CCCC(C)N1CC(C)(C)NS(=O)(=O)c1ccc(Cl)cc1 (configuration not stated) | 0.572 |
| COc1ccccc1C(CCN(Cc1cccs1)C(C)=O)c1ccco1 (configuration not stated) | -0.603 |
| O=C(NN1C(=O)C2C3C=CC(C3)C2C1=O)c1ccncc1 (configuration not stated) | -0.157 |
| CCOC(=O)c1cc(-c2ccccc2)sc1NC(=S)Nc1cc(C)ccn1 | 0.395 |
| CCC(C)(C)NC(=O)CN(CC1CCCO1)C(=O)CCC(=O)Nc1nccs1 (configuration not stated) | -0.31 |
| CCSc1nnc2c(Cl)cc(Cl)cn12 | -0.233 |
| CCCn1nnc(NCc2ccc(OCc3cccs3)c(OC)c2)n1 | 0.705 |
| CN1CCN(S(=O)(=O)c2cccc(C(=O)Nc3sc4c(c3-c3nc5ccccc5[nH]3)CCCC4)c2)CC1 | -0.27 |
